Whole data set: some 81,000 sequences, median “one-hybrid fitness for binding NBS DNA” near -0.1, cut for the highest 2% near 0.36. This is one part of the list.
B1: Caulobacter ParB omega fusion; a variant is named by its letters at X, in order, B8GW30 (parent)
chain: MESVVVGEPGMSEGRRGLGRGLSALLGEVDAAPAQAPGEQLGGSREAPIEILQRNPDQPRRTFREEDLEDLSNSIREKGVLQPILVRPSPDTAGEYQIVAGERAWRAAQRAGLKTVPIMVRELDDLAVLEIGIIENVQRADLNVLEEALSYKVLMEKFERTQENIAQTIGKSXSHVANXMRLLXLPDEVQSYLVSGELTAXHARAIAAAADPVALAKQIIEGGLSVRETEALARKAPNLSAGKSKGGRPPRVKDTDTQALESDLSSVLGLDVSIDHRGSTGTLTITYATLEQLDDLCNRLTRGI

Variants of: B1
Assay: one-hybrid fitness for binding NBS DNA (the Noc-binding site; scaled: cognate 1, non-cognate 0); higher = stronger binding
Conditions: with NBS DNA site
Method in brief: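 On M9-minus-histidine containing 0.1 mM IPTG and 5 mM 3-AT, E. coli USO cells with a HIS3 reporter, site 19 bp from the promoter, grew 48 hours at 37°C to select Caulobacter ParB libraries randomised at four specificity codons. Plasmids from before and after were Illumina-sequenced, with three replicate libraries pooled and variants under 10 reads left out. Fitness is the log change in variant-to-wild-type read ratio, rescaled against cognate and non-cognate.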

| Variant | one-hybrid fitness for binding NBS DNA |
| --- | --- |
| QFDR | ≤ 0.2 |
| LIRC | ≤ 0.2 |
| PVLE | ≤ 0.2 |
| HFKS | ≤ 0.2 |
| SHME | ≤ 0.2 |
| MPTL | ≤ 0.2 |
| MPLD | ≤ 0.2 |
| KRQQ | ≤ 0.2 |
| AMCC | ≤ 0.2 |
| HMIT | ≤ 0.2 |
| TKHA | ≤ 0.2 |
| YMPV | ≤ 0.2 |
| YWTT | ≤ 0.2 |
| CHCG | ≤ 0.2 |
| TFPP | ≤ 0.2 |
| TVLR | ≤ 0.2 |
| HFIG | ≤ 0.2 |
| NIYR | ≤ 0.2 |
| MFLM | ≤ 0.2 |
| VWPP | ≤ 0.2 |
| VLRY | ≤ 0.2 |
| QFSY | ≤ 0.2 |
| YSDR | ≤ 0.2 |
| WWES | ≤ 0.2 |
| LTYY | ≤ 0.2 |

| Variant | one-hybrid fitness for binding NBS DNA |
| --- | --- |
| AHYL | ≤ 0.2 |
| DDAR | ≤ 0.2 |
| SAAR | ≤ 0.2 |
| NCCL | ≤ 0.2 |
| DMDL | ≤ 0.2 |
| RFFM | ≤ 0.2 |
| KCND | ≤ 0.2 |
| DPGM | ≤ 0.2 |
| CTQV | ≤ 0.2 |
| GVIV | ≤ 0.2 |
| EEVS | ≤ 0.2 |
| ESPG | ≤ 0.2 |
| PFEG | ≤ 0.2 |
| RDIS | ≤ 0.2 |
| ICKC | ≤ 0.2 |
| RCIN | ≤ 0.2 |
| VQLT | ≤ 0.2 |
| DPHK | ≤ 0.2 |
| IARG | ≤ 0.2 |
| ACSM | ≤ 0.2 |
| FQHC | ≤ 0.2 |
| IKLS | ≤ 0.2 |
| MCPM | ≤ 0.2 |
| GGRM | ≤ 0.2 |
| QGWW | 0.228 |

| Variant | one-hybrid fitness for binding NBS DNA |
| --- | --- |
| EGNC | ≤ 0.2 |
| DKRT | ≤ 0.2 |
| SLMC | ≤ 0.2 |
| YQPL | ≤ 0.2 |
| DAER | ≤ 0.2 |
| MLER | ≤ 0.2 |
| YNQM | ≤ 0.2 |
| CIIC | ≤ 0.2 |
| TNTF | ≤ 0.2 |
| CDDS | ≤ 0.2 |
| PQNF | ≤ 0.2 |
| NCFP | ≤ 0.2 |
| KELD | ≤ 0.2 |
| RNNR | 0.381 |
| LLPW | ≤ 0.2 |
| LIVM | ≤ 0.2 |
| CRSH | ≤ 0.2 |
| MARF | ≤ 0.2 |
| IIMT | ≤ 0.2 |
| QNAY | ≤ 0.2 |
| RHKF | ≤ 0.2 |
| YPRI | ≤ 0.2 |
| QKWL | ≤ 0.2 |
| PSDY | ≤ 0.2 |
| PDDY | ≤ 0.2 |

| Variant | one-hybrid fitness for binding NBS DNA |
| --- | --- |
| FLVY | ≤ 0.2 |
| QREP | ≤ 0.2 |
| RRPV | ≤ 0.2 |
| DHRS | ≤ 0.2 |
| NHSD | ≤ 0.2 |
| PTSH | ≤ 0.2 |
| TLEV | ≤ 0.2 |
| SSFC | ≤ 0.2 |
| QMLC | ≤ 0.2 |
| RPRG | ≤ 0.2 |
| GMSF | ≤ 0.2 |
| QKEV | ≤ 0.2 |
| KRVN | ≤ 0.2 |
| SFNY | ≤ 0.2 |
| PCRG | ≤ 0.2 |
| LADY | ≤ 0.2 |
| INRI | ≤ 0.2 |
| QNRD | ≤ 0.2 |
| QYWA | ≤ 0.2 |
| FEDR | ≤ 0.2 |
| TYQM | ≤ 0.2 |
| MWEI | ≤ 0.2 |
| RRYC | 0.313 |

Source: a collection of fitness landscapes (doi:10.1016/j.celrep.2020.107928)
